Assay results: the antibiotic and cytotoxicity screens of Wong et al. (2023)
Some of the results follow.

How the values were obtained:
HSkMC = human skeletal muscle cells; experiment: cytotoxicity call (relative viability < 0.9); conditions: 10 µM
HepG2 = experiment: cytotoxicity call (relative viability < 0.9); conditions: 10 µM
S. aureus RN4220 = experiment: growth inhibition call (relative growth <= 0.2); conditions: 50 µM

Structure (SMILES)	cytotoxicity call (HSkMC)	cytotoxicity call (HepG2)	growth inhibition call (S. aureus RN4220)
O=C(C[C@@H]1C=C[C@H](NS(=O)(=O)c2ccc(F)cc2)[C@H](CO)O1)NCCN1CCCCC1	inactive	inactive	inactive
Cc1noc(C)c1NC(=O)Nc1ccc2c(c1)C(=O)N([C@H](C)CO)C[C@H](C)[C@@H](CN(C)Cc1ccc(C(=O)Nc3ccccc3N)cc1)O2	inactive	inactive	inactive
O=C(C[C@@H]1CC[C@H]2[C@@H](COC[C@@H](O)CN2C(=O)Nc2cc(Cl)cc(Cl)c2)O1)N1CCOCC1	inactive	inactive	active
Cc1noc(C)c1NC(=O)Nc1ccc2c(c1)CC(=O)N([C@H](C)CO)C[C@@H](C)[C@H](CN(C)Cc1ccc(Oc3ccccc3)cc1)O2	inactive	inactive	inactive
C[C@H](CO)N1C[C@H](C)[C@H](CN(C)C(=O)NC2CCCCC2)Oc2ccc(NC(=O)CCCN(C)C)cc2C1=O	inactive	inactive	inactive
C[C@H]1CN([C@@H](C)CO)C(=O)Cc2cc(NC(=O)Nc3cccc4ccccc34)ccc2O[C@@H]1CN(C)Cc1ccc(C(=O)Nc2ccccc2N)cc1	inactive	inactive	inactive
C[C@H](CO)N1C[C@H](C)[C@H](CN(C)C(=O)NC2CCCCC2)Oc2ccc(NS(C)(=O)=O)cc2CC1=O	inactive	inactive	inactive
Cc1ccc(S(=O)(=O)N(C)C[C@H]2OCCCC[C@H](C)Oc3ccc(NC(=O)Nc4ccccc4)cc3C(=O)N([C@H](C)CO)C[C@H]2C)cc1	inactive	inactive	inactive
CC(C)NC(=O)Nc1ccc2c(c1)C(=O)N([C@H](C)CO)C[C@H](C)[C@@H](CN(C)Cc1ccc(-c3ccccc3)cc1)O2	inactive	inactive	inactive
C[C@@H]1CCCCO[C@H](CN(C)C(=O)Nc2ccc(F)cc2)[C@@H](C)CN([C@@H](C)CO)C(=O)c2cc(NC(=O)CCC(F)(F)F)ccc2O1	inactive	inactive	inactive
COc1ccc(-c2cnc3c(c2)C(=O)N([C@H](C)CO)C[C@H](C)[C@H](CN(C)S(=O)(=O)c2ccccc2)O3)cc1	inactive	inactive	inactive
C[C@H](CO)N1C[C@H](C)[C@@H](CN(C)C(=O)Nc2ccc(C(F)(F)F)cc2)Oc2ccc(NC(=O)Cc3cn(C)c4ccccc34)cc2CC1=O	inactive	inactive	inactive
CC(C)NC(=O)Nc1ccc2c(c1)C(=O)N([C@@H](C)CO)C[C@@H](C)[C@@H](CN(C)S(=O)(=O)c1ccccc1)O2	inactive	inactive	inactive
C[C@@H]1CN([C@H](C)CO)C(=O)CCCn2nncc2CO[C@@H]1CN(C)Cc1ccc2c(c1)OCCN2C	inactive	inactive	inactive
COc1ccc(NC(=O)N(C)C[C@@H]2Oc3ncc(Br)cc3C(=O)N([C@@H](C)CO)C[C@@H]2C)cc1	inactive	inactive	inactive
O=c1[nH]c2ccccc2n2cnnc12	inactive	inactive	inactive
C[C@@H]1CN([C@@H](C)CO)C(=O)CCCn2nncc2CO[C@@H]1CN(C)C(=O)Nc1ccc2c(c1)OCO2	inactive	inactive	inactive
CN1CCCCC[C@@H]1C(=O)O	inactive	inactive	inactive
C[C@@H]1CCCCO[C@H](CN(C)Cc2ccc(C(=O)O)cc2)[C@@H](C)CN([C@H](C)CO)C(=O)c2cc(NS(=O)(=O)c3ccc(F)cc3)ccc2O1	inactive	inactive	inactive
C[C@H]1CN([C@@H](C)CO)C(=O)c2cc(C#Cc3ccccc3)cnc2O[C@@H]1CN(C)C(=O)CCN1CCCCC1	inactive	active	inactive
CCCNC(=O)N(C)C[C@@H]1Oc2cc(C#Cc3ccccn3)ccc2S(=O)(=O)N([C@@H](C)CO)C[C@H]1C	inactive	inactive	inactive
COc1ccc(S(=O)(=O)N(C)C[C@@H]2Oc3c(NC(=O)Nc4cccc5ccccc45)cccc3C(=O)N([C@@H](C)CO)C[C@H]2C)cc1	inactive	inactive	inactive
CN1C(=O)c2cc(NC(=O)C3CCC3)ccc2OC[C@H]2O[C@@H](CC(=O)NCCc3ccncc3)CC[C@H]21	inactive	inactive	inactive
COc1ccc(C2C(=O)c3ccccc3C2=O)cc1	inactive	inactive	inactive
C[C@@H]1CCCCO[C@@H](CN(C)Cc2ccc(Cl)c(Cl)c2)[C@H](C)CN([C@H](C)CO)C(=O)c2cc(NC(=O)Nc3ccccc3)ccc2O1	inactive	active	inactive
COc1ccc(NC(=O)Nc2ccc3c(c2)C(=O)N([C@H](C)CO)C[C@H](C)[C@@H](CN(C)C(=O)CCC(F)(F)F)OCCCC[C@H](C)O3)cc1	inactive	inactive	inactive
Cc1ccc(S(=O)(=O)Nc2ccc3c(c2)C(=O)N(C)[C@@H]2CC[C@@H](CC(=O)NCCc4ccncc4)O[C@@H]2CO3)cc1	inactive	inactive	inactive

Structure (SMILES)	cytotoxicity call (HSkMC)	cytotoxicity call (HepG2)	growth inhibition call (S. aureus RN4220)
C[C@H]1CN([C@@H](C)CO)C(=O)c2cc(NC(=O)NC3CCCCC3)ccc2O[C@@H]1CN(C)C(=O)Nc1ccc(C(F)(F)F)cc1	inactive	inactive	inactive
C[C@H](CO)N1C[C@H](C)[C@H](CN(C)C(=O)NC2CCCCC2)Oc2ccc(NS(=O)(=O)c3cn(C)cn3)cc2CC1=O	inactive	inactive	inactive
C[C@H](CO)N1C[C@H](C)[C@H](CN(C)S(=O)(=O)c2cccs2)Oc2ccc(NC(=O)Nc3cccc4ccccc34)cc2C1=O	inactive	inactive	inactive
C[C@@H]1CN([C@H](C)CO)C(=O)c2cccc(NS(C)(=O)=O)c2O[C@@H]1CN(C)S(=O)(=O)c1ccc(F)cc1	inactive	inactive	inactive
C=CCC[C@H](Cc1ccc(F)cc1)C(=O)O[C@H](CNC(=O)[C@@H](CC=C)CC(=O)N[C@H](CO)Cc1ccccc1)c1ccccc1	active	inactive	inactive
CO[C@@H](CN(C)C(=O)c1ccc2c(c1)OCO2)[C@H](C)CN([C@@H](C)CO)S(=O)(=O)c1ccc(C)cc1	inactive	inactive	inactive
C[C@@H]1CCCCO[C@H](CN(C)C(=O)Nc2cccc3ccccc23)[C@@H](C)CN([C@H](C)CO)C(=O)c2cc(NC(=O)Nc3ccccc3)ccc2O1	inactive	inactive	inactive
CC(=O)O[C@H]1C[C@](C)(O)C2=C[C@@H](O)[C@@](C)(O)[C@@H]2[C@H]2OC(=O)[C@@H](C)[C@@H]21	inactive	inactive	inactive
Cc1noc(C)c1S(=O)(=O)Nc1cccc2c1O[C@@H](CN(C)C(=O)Nc1ccc3c(c1)OCO3)[C@@H](C)CN([C@@H](C)CO)C2=O	inactive	inactive	inactive
Cc1ccc(S(=O)(=O)N(C)C[C@H]2Oc3ncc(C#CCC(C)C)cc3C(=O)N([C@H](C)CO)C[C@@H]2C)cc1	inactive	inactive	inactive
CO[C@H]1CN(C)C(=O)c2ccc(NS(=O)(=O)c3cn(C)cn3)cc2OC[C@@H](C)N(CC2CC2)C[C@@H]1C	inactive	inactive	inactive
C[C@@H]1CCCCO[C@H](CN(C)C(=O)Nc2ccc(C(F)(F)F)cc2)[C@H](C)CN([C@H](C)CO)C(=O)c2cc(NC(=O)C3CCCCC3)ccc2O1	inactive	inactive	inactive
CO/N=C(\C(=O)N[C@@H]1C(=O)N2C(C(=O)O)=C(C)CS[C@H]12)c1csc(N)n1	inactive	inactive	active
O=C(O)[C@@H]1CCCCO1	inactive	inactive	inactive
COc1cccc(S(=O)(=O)N(C)C[C@H]2Oc3ncc(C#CCN(C)C)cc3C(=O)N([C@H](C)CO)C[C@H]2C)c1	inactive	inactive	inactive
O=C(C[C@@H]1CC[C@H]2[C@@H](COC[C@H](O)CN2S(=O)(=O)c2ccc(F)cc2)O1)N[C@H]1CCN(Cc2ccccc2)C1	inactive	inactive	inactive
COCCCOc1cc(CC(CC(N)C(O)CC(C(=O)NCC(C)(C)C(N)=O)C(C)C)C(C)C)ccc1OC.O=C(O)C=CC(=O)O (configuration not stated)	inactive	inactive	inactive
O=C(Cc1ccncc1)NCC[C@H]1CC[C@H](NC(=O)C2CCOCC2)[C@@H](CO)O1	inactive	inactive	inactive
C[C@@H]1CN([C@@H](C)CO)C(=O)c2cc(NS(=O)(=O)c3ccc(Cl)cc3)ccc2O[C@@H](C)CCCCO[C@H]1CN(C)Cc1ccc(C(F)(F)F)cc1	active	active	inactive
COc1cc2c(N3CCN(C(=O)Nc4ccc(OC(C)C)cc4)CC3)ncnc2cc1OCCCN1CCCCC1	inactive	inactive	inactive
CO[C@H]1CN(C)C(=O)c2cc(NC(=O)Nc3ccccc3F)ccc2OC[C@H](C)N(Cc2ccccc2C(=O)O)C[C@H]1C	inactive	inactive	inactive
COc1ccc(NC(=O)Nc2ccc3c(c2)C(=O)N([C@@H](C)CO)C[C@H](C)[C@H](CN(C)C(=O)Cc2ccccc2)OCCCC[C@H](C)O3)cc1	inactive	inactive	inactive
COc1cccc(S(=O)(=O)N(C)C[C@@H]2Oc3ncc(C#CCN(C)C)cc3C(=O)N([C@H](C)CO)C[C@@H]2C)c1	inactive	inactive	inactive
Cc1noc(C)c1NC(=O)N(C)C[C@@H]1Oc2ccc(NS(=O)(=O)c3c(C)noc3C)cc2CC(=O)N([C@H](C)CO)C[C@@H]1C	inactive	inactive	inactive
COc1ccc(-c2coc3cc(O)ccc3c2=O)cc1	inactive	inactive	inactive
C[C@H](O)C#Cc1ccc2c(c1)O[C@H](CN(C)C(=O)Nc1ccccc1)[C@H](C)CN([C@H](C)CO)S2(=O)=O	inactive	inactive	inactive
C[C@@H]1CN([C@@H](C)CO)C(=O)c2cc(NS(C)(=O)=O)ccc2O[C@@H](C)CCCCO[C@H]1CN(C)Cc1ccc(C(F)(F)F)cc1	inactive	inactive	inactive
